# Assay results: PMC4336329 (PLoS ONE, 2015)
# The campaign covered roughly 310,000 compounds. About 14,000 (4.5%) showed an effect of 50% or more. Effects have a minus sign here. The list shows a part of the results.
# Target: human ether-à-go-go-related gene (hERG) potassium channel (human, UniProt Q12809)
# Test: primary screen, population patch clamp on CHO cells stably expressing hERG
# 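Note: peak tail current of the secondary pulse compared with the same well before compound.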
# Sequence of human ether-à-go-go-related gene (hERG) potassium channel (Q12809 whole entry, looked up): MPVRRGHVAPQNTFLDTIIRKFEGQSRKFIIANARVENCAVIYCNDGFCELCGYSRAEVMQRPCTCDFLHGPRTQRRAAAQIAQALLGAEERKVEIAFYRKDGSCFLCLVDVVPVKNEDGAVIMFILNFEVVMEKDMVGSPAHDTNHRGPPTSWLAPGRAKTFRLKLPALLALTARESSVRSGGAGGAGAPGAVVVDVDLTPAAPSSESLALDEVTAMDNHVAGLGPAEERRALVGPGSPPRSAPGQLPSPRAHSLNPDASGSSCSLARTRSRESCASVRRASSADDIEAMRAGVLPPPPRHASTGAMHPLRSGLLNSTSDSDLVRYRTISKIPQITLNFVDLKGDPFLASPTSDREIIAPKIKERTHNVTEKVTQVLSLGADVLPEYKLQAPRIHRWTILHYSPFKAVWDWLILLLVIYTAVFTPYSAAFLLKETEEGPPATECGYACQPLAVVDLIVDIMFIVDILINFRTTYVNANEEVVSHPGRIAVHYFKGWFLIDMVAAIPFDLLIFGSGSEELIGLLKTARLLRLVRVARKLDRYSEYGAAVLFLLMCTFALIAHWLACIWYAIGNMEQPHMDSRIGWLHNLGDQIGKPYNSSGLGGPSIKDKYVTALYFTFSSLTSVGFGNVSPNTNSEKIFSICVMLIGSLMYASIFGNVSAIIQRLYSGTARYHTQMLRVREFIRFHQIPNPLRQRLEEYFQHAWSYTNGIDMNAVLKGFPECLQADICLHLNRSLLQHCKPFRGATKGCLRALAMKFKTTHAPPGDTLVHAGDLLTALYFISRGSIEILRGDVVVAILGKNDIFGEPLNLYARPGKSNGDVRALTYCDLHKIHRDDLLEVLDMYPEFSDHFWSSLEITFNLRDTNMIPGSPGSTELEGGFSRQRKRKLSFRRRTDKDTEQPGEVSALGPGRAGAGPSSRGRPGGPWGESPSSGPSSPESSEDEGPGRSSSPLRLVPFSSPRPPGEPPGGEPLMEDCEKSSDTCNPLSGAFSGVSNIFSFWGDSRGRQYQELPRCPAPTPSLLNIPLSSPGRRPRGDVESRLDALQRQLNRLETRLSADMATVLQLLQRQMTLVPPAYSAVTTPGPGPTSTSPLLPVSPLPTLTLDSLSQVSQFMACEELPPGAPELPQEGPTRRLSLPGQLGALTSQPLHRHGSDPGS
row,Compound,"hERG current change (%, negative = inhibition) at 10uM [%]"
1,CCCCOCCCNC(=O)c1c(-c2ccccc2)noc1C,3.4
2,C=CCc1ccc(OCc2ccc(C(=O)O)o2)c(OC)c1,24.6
3,CCSc1nc(O)cc(=O)n1CC,29.4
4,CCOC(=O)/C(=N\Nc1cccc(C(F)(F)F)c1)N1CCOCC1,-16.7
5,C[n+]1ccccc1/C=C1\Sc2ccccc2N1CCO.[I-],-2.79
6,Cc1cccc(-n2c(C)nc3sccc3c2=O)c1,17.1
7,O=C(Nc1ccc(F)cc1)N1CCN(C(=O)C2CCCO2)CC1 (centres unmarked),2.96
8,COc1ccc(S(=O)(=O)/N=C2\C=C(NS(=O)(=O)c3ccccc3)C(=O)c3ccccc32)cc1,-16.2
9,O=C(Nc1ccccc1)c1cn(CCBr)cn1,17.3
10,COC(=O)Oc1c(Br)c(=O)oc2ccccc12,16.4
11,COc1ccc(COC(=O)C2CCN(S(=O)(=O)c3ccc(Cl)cc3)CC2)cc1,30
12,CCc1nc(SCC(=O)c2ccccc2)c2ccccc2n1,12.9
13,CN(C)S(=O)(=O)c1cccc(NC(=S)N2CCCCC2CO)c1 (centres unmarked),-6.33
14,COc1cc2ccccc2cc1C(=O)Nc1cccnc1,-9.84
15,Cc1ccccc1-n1c(SCC(=O)c2c(N)n(C)c(=O)n(C)c2=O)nc2sc3c(c2c1=O)CCCC3,33.5
16,Cn1c(=O)c2cc(S(=O)(=O)NCCC(=O)NC3CCCCCCC3)ccc2n(C)c1=O,-13.2
17,Cc1nc(N2CCC(C)CC2)c2nnn(Cc3ccccc3)c2n1,-0.828
18,O=C(NC1CCCCC1)C(c1ccc(F)cc1)N(CCc1ccccc1)C(=O)CN1C(=O)c2ccccc2S1(=O)=O (centres unmarked),15.8
19,CC1=C(C)/C(=N\OS(=O)(=O)c2ccccc2)C=CC1=O,-10.7
20,Cc1n[nH]c(C)c1CCc1nc2c3ccccc3nc(SCC(=O)Nc3ccccc3F)n2n1,17.7
21,COc1cc(C(=O)NCCCNc2ccc([N+](=O)[O-])cc2)cc(OC)c1OC,-57.6
22,COc1ccc(C(=O)NNC(=O)C2CCCN(C3CC(=O)N(c4ccccc4)C3=O)C2)cc1 (centres unmarked),7.27
23,O=C(OC1CCOC1=O)c1ccc2ncsc2c1 (centres unmarked),14.9

row,Compound,"hERG current change (%, negative = inhibition) at 10uM [%]"
1,O=C(COc1ccc(F)c(Cl)c1)N1CCCCCCC1,14.1
2,C=CCNC(=O)/C(=C\c1ccc([N+](=O)[O-])cc1)NC(C)=O,2.33
3,CCN(CC(=O)NCc1cccs1)C(=O)CCC(=O)c1ccc(C)cc1,-46.9
4,Cc1ccc(NC(=O)CSCC(=O)NC2=NCCS2)cc1,8.6
5,COc1ccccc1C1(CCNS(=O)(=O)c2ccc(C)cc2)CCOC(C(C)C)C1 (centres unmarked),4.49
6,Cn1c(=O)c2c(nc(NCC3CCCO3)n2Cc2ccccc2)n(C)c1=O (centres unmarked),-11.6
7,Cc1cccc(NC(=O)COn2nnc3ccc(S(C)(=O)=O)cc32)c1,19.4
8,Cc1onc(-c2c(Cl)cccc2Cl)c1C(=O)NCC1CCCO1 (centres unmarked),8.5
9,O=C(CCN1C(=O)/C(=C/c2ccc(Cl)cc2)SC1=S)Nc1ccc(C(=O)O)cc1,3.38
10,COCCCNC(=O)/C(C#N)=C/c1c(N2CCCCCC2)nc2ccccn2c1=O,2.27
11,CCOC(=O)c1c(C)[nH]c(NC(=O)NNC(=O)c2ccccc2Cl)c1C,15.1
12,Cc1cc(C)nc(SC2CC(=O)N(c3ccc(Cl)cc3)C2=O)n1 (centres unmarked),-8.77
13,COc1ccc(N2CCN(C(=O)C(=O)c3cn(CC(=O)N4CCOCC4)c4ccccc34)CC2)cc1,2.05
14,NS(=O)(=O)c1ccc(S(=O)(=O)c2ccccc2)nc1,5.27
15,O=Cc1cn(CC(O)CN2CCCCC2)c2ccccc12 (centres unmarked),27.3
16,COc1ccc(S(N)(=O)=O)cc1C(=O)NCCCN1CCN(c2cccc(Cl)c2)CC1.CS(=O)(=O)O,-23.9
17,COc1ccc(/C=N/NC(=O)c2ccco2)cc1Cn1nc(C)c([N+](=O)[O-])c1C,-14.7
18,Cc1cc(C(=O)COC(=O)CNC(=O)c2ccco2)c(C)n1Cc1ccco1,-3.61
19,O=S1(=O)CCN(OCc2ccc(Cl)cc2)CC1,34.5
20,O=C(CSc1nc2c(cnn2-c2ccccc2)c(=O)[nH]1)N1N=C(c2cccs2)CC1c1ccc(F)cc1 (centres unmarked),16
21,COc1cc(C2C(C(=O)c3ccco3)=C(O)C(=O)N2CCc2ccccc2)ccc1O (centres unmarked),8.89
22,Brc1ccc2[nH]c3c(N4CCc5ccccc5C4)ncnc3c2c1,11.6
23,CN1C2CCC1/C(=C\c1ccccc1)C(=O)/C2=C\c1ccccc1,-1.73

row,Compound,"hERG current change (%, negative = inhibition) at 10uM [%]"
1,CC1CCCC(C)N1C(=O)COC(=O)Cc1ccc(F)cc1 (centres unmarked),14
2,CN(CCC1CCCCO1)Cc1cn(C)nc1-c1ccc2c(c1)OCCO2 (centres unmarked),-6.42
3,Cc1cccc(OCC(=O)Nc2ccc3nc(C)sc3c2)c1,20.6
4,CCn1c(NC(=S)Nc2ccccc2)nc2ccccc21,18.4
5,CC(C)(C)NC(=O)C(c1ccco1)N(Cc1ccc2c(c1)OCO2)C(=O)c1snc(C(N)=O)c1N (centres unmarked),-7.21
6,CCOc1ccc(C(c2c(C)[nH][nH]c2=O)c2c(C)[nH][nH]c2=O)cc1OCC,5.77
7,CC(Oc1ccccc1)C(=O)NNC(=O)c1ccccn1 (centres unmarked),-6.14
8,COc1ccc(C(=O)c2ccccc2)cc1,1.12
9,CCOc1ccc(NC(=S)N2CCC(c3nc4ccccc4[nH]3)CC2)cc1,-0.503
10,Cc1cc(C)c(N=Cc2c(O)n(-c3nccs3)c(=O)c3ccccc23)c(C)c1,-23
11,O=C(CC1C(=O)NCCN1Cc1cccc(F)c1F)NCCCC1CCCC1 (centres unmarked),-17.1
12,Cc1cc(C)c(C)c(OCCOCCNCc2ccccc2)c1.O=C(O)C(=O)O,-54.2
13,CCCc1ccc(S(=O)(=O)NCC2CCCN2CC)cc1 (centres unmarked),-39.1
14,O=C(Nc1ccc2c(c1)OCO2)c1ccc[n+]([O-])c1,29
15,Cc1ccc(S(=O)(=O)N2[C@@H](c3ccc(F)cc3)C(C(=O)O)=CC[C@H]2c2ccc3c(c2)OCO3)cc1,9.34
16,CN(C)C(=S)NC(=O)C12CC3CC(C)(CC(C)(C3)C1)C2,10
17,O=C(O)c1c(NC(=O)N(CCO)Cc2ccccc2)sc2c1CCCC2,20.7
18,CC(=O)c1ccc(N2CCN(C(=O)CCc3ccccc3)CC2)cc1,-54.1
19,CCOC(=O)C1CCCN(S(=O)(=O)c2ccc(Br)s2)C1 (centres unmarked),-13.1
20,OCc1nc2ccccc2n1Cc1c(F)cccc1Cl,-5.9
21,COC(=O)c1ccc(COc2cc(O)c3c(c2)OC(C)(C)CC3=O)cc1,6.38
22,COc1cccc2cc(C(=O)N3CCN(c4ccccn4)CC3)c(=O)oc12,2.71
23,Cn1nc(NC(=O)C(C)(C)C)c2c(F)cccc21,-0.47

row,Compound,"hERG current change (%, negative = inhibition) at 10uM [%]"
1,Cc1ccc(NC(=O)c2ccccc2NC(=O)CCC(=O)O)cc1,-6.01
2,Cc1ccc(NC(=O)c2cccc3ccccc23)cc1,13.3
3,CCS(=O)(=O)N1CCC(C(=O)N2CCC3(CC2)OCCO3)CC1,6.65
4,Cc1cc(C)n(-c2nc(NCC(C)O)c3c4c(sc3n2)COC(C)(C)C4)n1 (centres unmarked),6.03
5,O=c1c2ccccc2nnn1CSc1ccc2c(c1)OCCO2,-7.04
6,CC(=O)Oc1c(I)cc(I)cc1C(=O)Nc1ccc(Cl)cc1,19.9
7,Cc1ccc(NC(=O)c2ccc(F)cc2F)cc1,12.2
8,O=C(COC(=O)c1cccnc1Cl)NCCC1=CCCCC1,25.9
9,CC(=C/C(=O)O)/C=C/c1cccs1,12.1
10,O=C(O)c1ccccc1-c1ccc(/C=c2\sc3nc4cc(Br)cnc4n3c2=O)o1,7.47
11,CCOc1ccccc1OCCOCCOc1ccccc1[N+](=O)[O-],-20.5
12,O=Cc1ccc(-n2cncn2)cc1,29.1
13,O=C(COc1ccc(C(=O)c2ccccc2)cc1)NCC(=O)Nc1ccccc1Br,-22.2
14,c1ccc(CC(NCc2ccco2)c2ccccc2)cc1 (centres unmarked),-9.13
15,COc1ccc(-c2noc(C(=O)NCc3ccccc3Cl)n2)cc1OC,0.607
16,O=C(CSc1nc2ncccc2[nH]1)Nc1c(F)cc(F)cc1Br,10.2
17,O=C(Nc1nccs1)C1(S(=O)(=O)c2ccc(Cl)cc2)CC1,0.342
18,COc1ccc(/C=C/C(=O)CC(O)(c2ccccc2)C(F)(F)F)cc1 (centres unmarked),0.0544
19,Cn1cccc1Cc1nnc(SCC(=O)Nc2ccccc2)n1-c1ccc(F)cc1,-39.7
20,CCOc1ccc(-c2cc(C(=O)O)c3ccccc3n2)c(OCC)c1,11.3
